These results are taken from PMC12136788.

The list shows a part of the results.

First the molecules themselves.
T1: UNK ZnF1-3 (human, UniProt Q9C0B0 31-174)
T1 sequence: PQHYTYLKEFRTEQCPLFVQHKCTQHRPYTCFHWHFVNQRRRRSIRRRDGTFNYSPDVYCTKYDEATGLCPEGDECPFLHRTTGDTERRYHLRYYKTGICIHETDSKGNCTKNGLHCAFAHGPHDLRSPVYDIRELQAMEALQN

B1: chr15:79941026:79941027:+_ENSMUSG00000022415_ENSMUST00000009727|mus_hu|FALSE|FALSE (ssRNA)
RNA: GGGAGUUCUACAGUCCGACGAUCUUUCUUGCGGUCCUUGACGCUGCUGAUCUGCGGGAAGUACACGUCCAGGGCCAGGUACAGCAGGCAGGUGAGGAAGGCGAGCACGCCCACGGCCACGCCAUAGCUGCAGGCGUUGGGGUUCAACAGAGGAUUGAGCAUCA
B2: 10438206_10439956_228_3pUTR_ENSMUSG00000027534_ENSMUST00000029047|mouse|control|control (ssRNA)
RNA: GGGAGUUCUACAGUCCGACGAUCACUUGUACACCUUUGAGUCCAAACACUUAAAGAACAACCAAUAUGCAGUUCAUUGCUUUCUUCUUAGGAAUUCACUAUCUCGGCGCGCUCCGCGACCCCACGCCGUCAGGGGAAGGAAGGCAACAGAGGAUUGAGCAUCA
B3: chr17:64801638:64801639:+_ENSG00000154229_ENST00000413366|hu_mus|hu_hu_hu_mus_False|1_8 (ssRNA)
RNA: GGGAGUUCUACAGUCCGACGAUCUAUAUAUAUAUAUACAUAUGUACACAUAUAUAGUAAAACCCUAGUUAAACGUGUAAAGUAGCCAUUCAUUUUUAAAAUUACAUCUACAUUAAAAAAUUAAUAUAUCUGAUACAGUGCCCACAACAGAGGAUUGAGCAUCA
B4: 43796035_43796155_616_CDS_ENSG00000152242_ENST00000321319|human|control|control (ssRNA)
RNA: GGGAGUUCUACAGUCCGACGAUCCAGGUGACCACUAGAGGAAGGGGAAAGCAUGCAGUGAUUAGAGGAGUCACUCUCAUAAACUCGGCCAGUUGUAGGCUUGUCACUCUCUGUGGAUGCUAACUGAGACUCAGAAGAGUCCCUCAACAGAGGAUUGAGCAUCA
B5: chr11:29999759:29999760:-_ENSMUSG00000020315_ENSMUST00000011877|mus_hu|FALSE|FALSE (ssRNA)
RNA: GGGAGUUCUACAGUCCGACGAUCUACACUUACCAAUGAUUUAAAGGGUUUAUUAUACAUCUAGUUUUAUUAUACUUUGUACUAGAAUUAUCUCAAACGUACAAUAUAAUGUAUUUCAGCAAAAAAAAAAAAUUGAAAUUACAGCAACAGAGGAUUGAGCAUCA
B6: 37446505_37446897_2516_CDS_ENSMUSG00000026113_ENSMUST00000027287|mouse|control|control (ssRNA)
RNA: GGGAGUUCUACAGUCCGACGAUCAUCCCGGUUUCCUGUGAUGACCGGCAGCAUGUCAUUUGAUGCAUUCGAAGUGGCCUGAGUGACUUUAAAGGUCACAUUCCUCAGGUCCAUGAUUCCAAGGCUCAUGUCCUCCAACAUGGCCAACAGAGGAUUGAGCAUCA
B7: chr8:74529624:74529625:-_ENSG00000040341_ENST00000355780|hu_mus|FALSE|FALSE (ssRNA)
RNA: GGGAGUUCUACAGUCCGACGAUCAAGCGCUUUCAUCGCAGCAUUGUGUCUGGCAGCUUGUCGAGUCUUCCCUUCACCAAAGAAUUCAUUAUUUCCUACAGUUAACUGAACAUAAAAGAUCUUGGGCAUUGGGCAAUGAUACCUCAACAGAGGAUUGAGCAUCA
B8: chr6:106732989:106732990:-_ENSMUSG00000005362_ENSMUST00000049675|mus_mus|motif|central (ssRNA)
RNA: GGGAGUUCUACAGUCCGACGAUCACUGCCGAUUUUAAGGAGCUGAAUUCUCAAUACAUCAUCAAUAGGAAGACAAGCAGCGGCUCUGUAAGAAAAGUCUAUUGGAUUUUCAGGAAGAGAAUCAUCUUUGAGAUUUUCAUCCCACAACAGAGGAUUGAGCAUCA
B9: 103732641_103732761_1005_3pUTR_ENSMUSG00000044098_ENSMUST00000106806|mouse|control|control (ssRNA)
RNA: GGGAGUUCUACAGUCCGACGAUCAGCAAGAAACUCCUCAGAAAAUCUCUCCAUCUCCAUUGGAGACAAAAAUGAGAGUUCGUCCAUGUAUGCAUGAAGGACAAGAGCACCCCCAUUGGACUGGUGUUCUUCGUGAAUAAAGUUCAACAGAGGAUUGAGCAUCA
B10: 72565724_72565844_983_CDS_ENSMUSG00000056429_ENSMUST00000070524|mouse|control|control (ssRNA)
RNA: GGGAGUUCUACAGUCCGACGAUCAAGUGGUGAGCCUUCUUCCGGCUCUGUGUCACCCUCUUCAAUCUCCUUGGUUUCCACGUCUUCAGUAGGCUCUGAAGACUUAUCUCCUUUCUCUGGCUUUAAAGAGAAGUCAGAGUCCCCCAACAGAGGAUUGAGCAUCA
B11: chr2:148701057:148701058:-_ENSG00000115947_ENST00000542387|hu_mus|FALSE|FALSE (ssRNA)
RNA: GGGAGUUCUACAGUCCGACGAUCAUGACUGCAAGUUUUUGUUGACACUGAAAUGUUUCUGUAGGACUUCAAGCACAGUUGAAUCUUCAGAGAGACAGUGAACAUUCUCAUUCCAUCUCUCAGCAAAAGCCUUAUCUGGGAAUUCAACAGAGGAUUGAGCAUCA
B12: chr19:8913615:8913616:-_ENSMUSG00000071658_ENSMUST00000096259|mus_hu|mus_mus_mus_hu_False|68_88 (ssRNA)
RNA: GGGAGUUCUACAGUCCGACGAUCAGGGUACCAAAACCUUCUGCCUGAGAUAGGUGCCCCACCCAGUCAGGACUUGGAGCUGAAAGUAUCUGAUGCAGAAGCAGUGACUAUACGAAAGGAGGCCCCUGGGGAGGGCCAGGCCAGCAACAGAGGAUUGAGCAUCA
B13: chr2:179515052:179515053:+_ENSMUSG00000000305_ENSMUST00000000314|mus_hu|mus_mus_mus_hu_False|68_78 (ssRNA)
RNA: GGGAGUUCUACAGUCCGACGAUCGCUGUCCCAUGCAGUCACCGUGAACGCCACCUGCUCUGAGGGGAUCUUCAACUCCCGGGUGGCGAAGACUGUCCCAUCUGCCCCAACUUUGAAGUCCAUGCUGUUGGUCUCAUAUUGUGUCAACAGAGGAUUGAGCAUCA
B14: chr8:95500983:95500984:-_ENSG00000164944_ENST00000437199|hu_hu|hu_hu_hu_mus_True|78_108 (ssRNA)
RNA: GGGAGUUCUACAGUCCGACGAUCAGAAGGAUUUUUACGAGUAAAGGACCGUACAUGGACGACCUCUCCACUGCCUCCACUAACAAACUUUCCUCUCGAGCCUCCACUGCCGCUAUUUGUACUAGCCCAGGACGGUCCCAGGCCCAACAGAGGAUUGAGCAUCA
B15: chr2:119558892:119558893:+_ENSMUSG00000027304_ENSMUST00000028767|mus_mus|motif|central (ssRNA)
RNA: GGGAGUUCUACAGUCCGACGAUCGCAAGAACCCCACAGCUCCACGGUAAUACUGAGUGUGCUGAGUGGCGGGACUGUGCGGGUUACAAACCAGAAGCAGGCGGGAGGGCAAACACAAACCUAAAGAGAAGAAGCCCCAUCCAACAACAGAGGAUUGAGCAUCA
B16: chr3:138121269:138121270:+_ENSG00000158186_ENST00000289104|hu_mus|FALSE|FALSE (ssRNA)
RNA: GGGAGUUCUACAGUCCGACGAUCUCAACACACAAAAGGUUUGGAAGCUGUAGCCCUGUCUCCUGGGAGAGGCAGCAAAGCCAGCCCCGGCCUGCUUCUGCCCCCUCCUCCCUCAUUCCCUUCCAAUGCCCAGUCCAGAGCCAACAACAGAGGAUUGAGCAUCA
B17: 121518184_121526273_779_CDS_ENSG00000173226_ENST00000310864|human|control|control (ssRNA)
RNA: GGGAGUUCUACAGUCCGACGAUCAUACAGGGCUUUUCUUCCUAUUCUGAGUAAAUCACCACUGUUGAUCUGUAGUAUAUUCUGUAGCAUCAUCAUGACUGCAGAUCCUAUUUGGACAUUGUCAGCUUGCAGUAAAUGUAAGAACAACAGAGGAUUGAGCAUCA
B18: 75014891_75015011_2779_3pUTR_ENSMUSG00000034593_ENSMUST00000123128|mouse|control|control (ssRNA)
RNA: GGGAGUUCUACAGUCCGACGAUCUCGCUGCACUGUGAUGGCUGCCCUCUGCAUACACAGGUAUCUCUUCCUUAGAAGCCACCCACGAAUGGUCUUCUGGAUCCGGAUGCAGGCAGCCCGAAGUUUGUCAGCCCUCAAUUUUUCCAACAGAGGAUUGAGCAUCA
B19: chr1:225611761:225611762:-_ENSG00000143815_ENST00000272163|hu_mus|hu_hu_hu_mus_True|8_28 (ssRNA)
RNA: GGGAGUUCUACAGUCCGACGAUCCCAGGCCAUCGGCCUCUGACCACUUCACCCUCAACAAACUUCCUACUUGGCAUUUUCUAAAAUUAGUCUGGCCGCGCUCCGGCCGGUGACACGGCCACUCCAGGGAGAAUAGUAGCAGCCCAACAGAGGAUUGAGCAUCA
B20: chr17:34945718:34945719:+_ENSG00000005955_ENST00000304718|hu_mus|motif|central (ssRNA)
RNA: GGGAGUUCUACAGUCCGACGAUCAUUUAAGCGGCAGUAUUUAUUAAAUUUCUCCUUCAGAUGCUGUCGGUAUUGUUCUCGGUUGCUGUAGAAAGACUGGUUAUUAGCCAUAAAUGACUGUAUUUCAUCUUGUGAGAUAAAGAUCAACAGAGGAUUGAGCAUCA
B21: chr2:114674474:114674475:+_ENSG00000115091_ENST00000535589|hu_hu|FALSE|FALSE (ssRNA)
RNA: GGGAGUUCUACAGUCCGACGAUCGUCAUCAACACCUUUCAUCACCCUCCUUUGAGCUUGAUCACCCACUUUUGCUGACUCCUUAAUAGCAAUACAGGAAGGGAUGAUAAACUGUGGUUCUGUAUUUCCAGCAUAUCCUAGUUUCAACAGAGGAUUGAGCAUCA
B22: 144360401_144368566_810_CDS_ENSMUSG00000037062_ENSMUST00000163279|mouse|control|control (ssRNA)
RNA: GGGAGUUCUACAGUCCGACGAUCACUUUGAGUUAUUCUCAAUUCCUGUUCAGAUGAACUUUUAGUUUCUGCAGCUUUUGCCUUUUUUAGUCUUGUUUUUGCAGCAUCCAAAUCCAGUCUCUUAUUCUGUAAUAGUUUCCUUUCCAACAGAGGAUUGAGCAUCA

This assay has as its target T1, UNK ZnF1-3. Put plainly: nsRBNS (natural sequence RNA bind-n-seq); RBNS binding buffer (assumed for nsRBNS): 25 mM Tris pH 7.5, 150 mM KCl, 3 mM MgCl2, 0.01% Triton X-100, 500 ug/ml BSA, 20 U/ml SUPERase-In, 4 C; UNK is unkempt and MSI1 is Musashi-1; names of the RNAs are library labels; protein concentration not given here; high values mean tight binding.
B1 yielded a binding signal of 0.913 enrichment R.
Molecule B2 yielded a binding signal of 0.902 enrichment R.
Molecule B3 came in with a binding signal of 1.67 enrichment R.
Molecule B4 had a binding signal of 1.48 enrichment R.
The result for B5 reads 2.96 enrichment R; that for B6, 0.698 enrichment R; that for B7, 1.17 enrichment R.
Next, B8: 1 enrichment R.
Molecule B9 had a binding signal of 0.798 enrichment R.
The result for B10 reads 0.505 enrichment R; that for B11, 1.06 enrichment R; that for B12, 1.36 enrichment R.
Molecule B13 displayed a binding signal of 0.686 enrichment R.
The result for B14 reads 1.35 enrichment R; that for B15, 1.23 enrichment R; that for B16, 1.06 enrichment R.
B17 came in with a binding signal of 0.976 enrichment R.
Molecule B18 registered a binding signal of 0.448 enrichment R.
Take B19: the binding signal was found to be 1.05 enrichment R.
The result for B20 reads 0.68 enrichment R.
Regarding B21, the binding signal worked out at 0.752 enrichment R.
As to B22, the binding signal came out at 0.321 enrichment R.
